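Assay format: 96-well plates, 48-hour exposure. At the GI50, growth is halved.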 Certain results were filed several times, with different values. This is not the full list of results. The source may hold further records. For part of these data: The tests behind the records often covered other concentration ranges, not given here; some values may only mark the edge of a range. Marks in square brackets tell the records apart. Letters hold for one entry only.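 TGI marks complete inhibition of growth.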 For part of these data: The values listed for one entry are repeated measurements across runs, samples, wells, individuals or studies.
Legend:
Test in all cases: inhibition of tumour cell growth, NCI panel, 48 h
NCI-H226 lung = system: NCI-H226 lung
NCI-H23 lung = system: NCI-H23 lung
NCI-H460 lung = system: NCI-H460 lung
NCI-H522 lung = system: NCI-H522 lung
NCI/ADR-RES ovarian = system: NCI/ADR-RES ovarian
OVCAR-3 ovarian = system: OVCAR-3 ovarian
OVCAR-5 ovarian = system: OVCAR-5 ovarian
OVCAR-8 ovarian = system: OVCAR-8 ovarian
PC-3 prostate = system: PC-3 prostate
RPMI-8226 leukemia = system: RPMI-8226 leukemia
RXF 393 renal = system: RXF 393 renal
SF-268 CNS = system: SF-268 CNS
SF-295 CNS = system: SF-295 CNS
SK-MEL-2 melanoma = system: SK-MEL-2 melanoma
SK-MEL-28 melanoma = system: SK-MEL-28 melanoma
SK-MEL-5 melanoma = system: SK-MEL-5 melanoma
SK-OV-3 ovarian = system: SK-OV-3 ovarian
SN12C renal = system: SN12C renal
SN12K1 renal = system: SN12K1 renal
SNB-19 CNS = system: SNB-19 CNS
SNB-75 CNS = system: SNB-75 CNS
SR leukemia = system: SR leukemia
SW-620 colon = system: SW-620 colon
UACC-62 melanoma = system: UACC-62 melanoma
UO-31 renal = system: UO-31 renal

Q: `Nc1ncn(C2OC(CO)C(O)C2O)c(=O)n1` (stereo not drawn) was tested. Which TGI (NCI-H226 lung) did it give?
A: Its TGI is > 250 µM [sample A, mean of 10 tests] and 11.9 µM [sample B, mean of 3 tests] and 9.92 µM [sample B, mean of 5 tests] and 9.32 µM [sample B, mean of 6 tests].

Q: And the TGI (NCI-H23 lung)?
A: The TGI was > 191 µM [sample A, mean of 13 tests] and 25.8 µM [sample B, mean of 3 tests] and 22.9 µM [sample B, mean of 6 tests] and 36 µM [sample B, mean of 8 tests].

Q: And the GI50 (NCI-H460 lung)?
A: Its GI50 is 3.12 µM [sample A, 1 test] and 5.6 µM [sample A, mean of 15 tests] and 263 nM [sample B, mean of 3 tests] and 133 nM [sample B, mean of 5 tests] and 403 nM [sample B, mean of 7 tests].

Q: And the TGI (NCI-H460 lung)?
A: The TGI was 14.9 µM [sample A, 1 test] and 164 µM [sample A, mean of 15 tests] and 3.2 µM [sample B, mean of 3 tests] and 1.38 µM [sample B, mean of 5 tests] and 3.51 µM [sample B, mean of 7 tests].

Q: What about the TGI (NCI-H522 lung) of the same compound?
A: Its TGI is > 250 µM [sample A, mean of 15 tests] and 10 µM [sample B, mean of 3 tests] and 6.65 µM [sample B, mean of 5 tests] and 4.19 µM [sample B, mean of 7 tests].

Q: And the TGI (NCI/ADR-RES ovarian)?
A: The TGI was > 212 µM [sample A, mean of 14 tests] and 20.1 µM [sample B, mean of 10 tests] and 15.6 µM [sample B, mean of 3 tests] and 57.3 µM [sample B, mean of 6 tests].

Q: And the GI50 (OVCAR-3 ovarian)?
A: Its GI50 is > 237 µM [sample A, mean of 12 tests] and 2.24 µM [sample B, mean of 3 tests] and 1 µM, 1.26 µM [sample B, mean of 5 tests].

Q: What about the TGI (OVCAR-3 ovarian) of the same compound?
A: The TGI was > 250 µM [sample A, mean of 12 tests] and 7.04 µM [sample B, mean of 3 tests] and 3.64 µM, 5.09 µM [sample B, mean of 5 tests].

Q: And the TGI (OVCAR-5 ovarian)?
A: Its TGI is > 223 µM [sample A, mean of 14 tests] and 63.3 µM [sample B, mean of 3 tests] and 60.8 µM [sample B, mean of 6 tests] and 49.9 µM [sample B, mean of 9 tests].

Q: What about the TGI (OVCAR-8 ovarian) of the same compound?
A: Its TGI is > 250 µM [sample A, mean of 14 tests] and 7.69 µM [sample B, mean of 10 tests] and 17.6 µM [sample B, mean of 3 tests] and 22.6 µM [sample B, mean of 6 tests].

Q: And the GI50 (PC-3 prostate)?
A: The GI50 was > 130 µM [sample A, mean of 4 tests] and 2.31 µM [sample B, mean of 3 tests] and 609 nM [sample B, mean of 4 tests] and 1.24 µM [sample B, mean of 6 tests].

Q: What about the TGI (PC-3 prostate) of the same compound?
A: Its TGI is > 250 µM [sample A, mean of 4 tests] and 27.7 µM [sample B, mean of 3 tests] and 8 µM [sample B, mean of 4 tests] and 31.5 µM [sample B, mean of 6 tests].

Q: And the GI50 (RPMI-8226 leukemia)?
A: The GI50 was > 236 µM [sample A, mean of 12 tests] and 364 nM [sample B, mean of 3 tests] and 326 nM [sample B, mean of 5 tests] and 380 nM [sample B, mean of 8 tests].

Q: What about the TGI (RPMI-8226 leukemia) of the same compound?
A: Its TGI is > 250 µM [sample A, mean of 12 tests] and 6.52 µM [sample B, mean of 3 tests] and 18.8 µM [sample B, mean of 5 tests] and 2.69 µM [sample B, mean of 8 tests].

Q: And the GI50 (RXF 393 renal)?
A: The GI50 was > 175 µM [sample A, mean of 14 tests] and 659 nM [sample B, mean of 10 tests] and 425 nM [sample B, mean of 3 tests] and 511 nM [sample B, mean of 6 tests].

Q: And the TGI (RXF 393 renal)?
A: Its TGI is > 238 µM [sample A, mean of 14 tests] and 4.4 µM [sample B, mean of 10 tests] and 3.26 µM [sample B, mean of 3 tests] and 7.66 µM [sample B, mean of 6 tests].

Q: What about the TGI (SF-268 CNS) of the same compound?
A: Its TGI is > 250 µM [sample A, mean of 15 tests] and 62.3 µM [sample B, mean of 10 tests] and 33.5 µM [sample B, mean of 3 tests] and 30.3 µM [sample B, mean of 6 tests].

Q: And the GI50 (SF-295 CNS)?
A: The GI50 was > 238 µM [sample A, mean of 10 tests] and 2.45 µM [sample B, mean of 3 tests] and 1.99 µM [sample B, mean of 6 tests] and 1.6 µM [sample B, mean of 8 tests].

Q: And the TGI (SF-295 CNS)?
A: The TGI was > 250 µM [sample A, mean of 10 tests] and 19.3 µM [sample B, mean of 3 tests] and 18.5 µM [sample B, mean of 6 tests] and 13.1 µM [sample B, mean of 8 tests].

Q: What about the GI50 (SK-MEL-2 melanoma) of the same compound?
A: Its GI50 is 112 µM [sample A, mean of 10 tests] and 493 nM [sample B, mean of 3 tests] and 250 nM [sample B, mean of 6 tests] and 444 nM [sample B, mean of 9 tests].

Q: And the TGI (SK-MEL-2 melanoma)?
A: The TGI was > 246 µM [sample A, mean of 10 tests] and 2.71 µM [sample B, mean of 3 tests] and 1.44 µM [sample B, mean of 6 tests] and 1.32 µM [sample B, mean of 9 tests].

Q: And the TGI (SK-MEL-28 melanoma)?
A: Its TGI is > 250 µM [sample A, mean of 15 tests] and 11.4 µM [sample B, mean of 10 tests] and 16.3 µM [sample B, mean of 3 tests] and 14.8 µM [sample B, mean of 6 tests].

Q: And the TGI (SK-MEL-5 melanoma)?
A: The TGI was > 250 µM [sample A, mean of 12 tests] and 6.98 µM [sample B, mean of 10 tests] and 15.3 µM [sample B, mean of 3 tests] and 6.25 µM [sample B, mean of 6 tests].

Q: And the GI50 (SK-OV-3 ovarian)?
A: The GI50 was > 182 µM [sample A, mean of 12 tests] and 2.42 µM [sample B, mean of 10 tests] and 2.72 µM [sample B, mean of 3 tests] and 3.66 µM [sample B, mean of 6 tests].

Q: And the TGI (SK-OV-3 ovarian)?
A: Its TGI is > 205 µM [sample A, mean of 12 tests] and 14.6 µM [sample B, mean of 10 tests] and 12.8 µM [sample B, mean of 3 tests] and 13.8 µM [sample B, mean of 6 tests].

Q: And the TGI (SN12C renal)?
A: The TGI was > 250 µM [sample A, mean of 12 tests] and 20.9 µM [sample B, mean of 3 tests] and 43.4 µM [sample B, mean of 5 tests] and 10.9 µM [sample B, mean of 8 tests].

Q: What about the TGI (SN12K1 renal) of the same compound?
A: The TGI was > 250 µM [sample A, mean of 9 tests] and 7.01 µM [sample B, mean of 4 tests].

Q: And the TGI (SNB-19 CNS)?
A: Its TGI is > 250 µM [sample A, mean of 15 tests] and 64.7 µM [sample B, mean of 3 tests] and 55.7 µM [sample B, mean of 6 tests] and 62.6 µM [sample B, mean of 7 tests].

Q: And the TGI (SNB-75 CNS)?
A: Its TGI is > 250 µM [sample A, mean of 11 tests] and 28.6 µM [sample B, mean of 3 tests] and 15.3 µM [sample B, mean of 5 tests] and 22.4 µM [sample B, mean of 7 tests].

Q: And the TGI (SR leukemia)?
A: Its TGI is > 250 µM [sample A, mean of 2 tests] and 3.13 µM [sample B, mean of 2 tests] and 16.9 µM [sample B, mean of 3 tests] and 30.5 µM [sample B, mean of 4 tests].

Q: And the TGI (SW-620 colon)?
A: The TGI was > 250 µM [sample A, mean of 14 tests] and 54.2 µM [sample B, mean of 3 tests] and 28.6 µM [sample B, mean of 6 tests] and > 53.3 µM [sample B, mean of 9 tests].

Q: What about the TGI (UACC-62 melanoma) of the same compound?
A: Its TGI is > 250 µM [sample A, mean of 14 tests] and 4.63 µM [sample B, mean of 10 tests] and 4.31 µM [sample B, mean of 3 tests] and 4.38 µM [sample B, mean of 5 tests].

Q: What about the TGI (UO-31 renal) of the same compound?
A: The TGI was > 250 µM [sample A, mean of 14 tests] and 4.81 µM [sample B, mean of 2 tests] and 5.21 µM [sample B, mean of 3 tests] and 5.56 µM [sample B, mean of 5 tests].

— PubChem BioAssay (NCI)
